The text below walks through data of patent US20260232796A1, “COMBINATION THERAPIES WITH AN ANTI-FACTOR XI/FACTOR XIA ANTIBODY” (Anthos Therapeutics, Inc., priority 2022, published 2026).

Assay [1] relates to platelet aggregation. The assay is described as follows: Whole blood platelet aggregation, multiplate impedance aggregometer (Example 1). The assay is classed as cell-based, human. The following applies: Antibody 1 250, 500 or 1000 nM, vs vehicle. Here is the method: (§1) Whole blood was obtained in EDTA and citrate tubes (6 healthy donors). Specimens were spiked with vehicle, Antibody 1 (250, 500, or 1000 nM), or abciximab (50 nM). Platelet aggregation was recorded following induction using collagen (1 μg/mL) or TRAP-6 (8 μM) using a multiplate impedance aggregometer. The area under the curve (AUC) for platelet aggregation was determined in arbitrary aggregation*time (AU*min). Thrombin generation was also measured at the above Antibody 1 and abciximab concentrations in platelet-rich plasma using Thrombinoscope CAT (Calibrated Automated Thrombogram; Stago CH S.A. and tissue factor reagent (1 μM); fluorescence was measured by an automated plate reader fluorometer.

In a further assay the test system is thrombin generation. The assay is described as follows: Thrombin generation in platelet-rich plasma, Calibrated Automated Thrombogram. In kind it is biochemical, human. The following applies: tissue factor reagent, Antibody 1 250, 500 or 1000 nM. Here is the method:
as §1

Assay [2] relates to platelet aggregation. As to the kind of experiment: Impedance platelet aggregometry in whole blood spiked with aspirin +/- Antibody 1. In kind it is cell-based, human. Particulars: Antibody 1 at 125, 250, and 500 ng/mL added to aspirin 1 mg/mL; collagen or arachidonic acid induction. As for the experimental part:
Two studies were conducted concurrently. Blood specimens were obtained in EDTA and citrate tubes (6 healthy donors for each study). In the first study, whole blood was spiked with vehicle, aspirin (1 mg/mL), or aspirin (1 mg/mL)+Antibody 1 (125, 250, and 500 nM). Platelet aggregation was measured by impedance platelet aggregometry following induction with collagen (3.2 μg/mL) or arachidonic acid (0.5 mM) (Multiplate® analyzer, COLtest and ASPItest reagents; Roche Diagnostics International Ltd, Rotkreuz, Switzerland).

Assay [3] has as its system platelet aggregation. As to the kind of experiment: Impedance platelet aggregometry in whole blood spiked with ticagrelor +/- Antibody 1. The assay is classed as cell-based, human. Particulars: Antibody 1 at 125, 250, and 500 ng/mL added to ticagrelor 3 μM; ADP or TRAP-6 induction. Here is the method: In the second study, whole blood was spiked with vehicle, ticagrelor (3 μM), or ticagrelor (3 μM)+Antibody 1 (125, 250, and 500 nM). Platelet aggregation was measured with the same methodology following induction by ADP (6.4 μM) or thrombin receptor activating peptide-6 (TRAP-6, 32 μM).

Assay [4] deals with clot formation in human blood. As to the kind of experiment: Rotational thromboelastometry (ROTEM) NATEM test in whole blood in vitro. In kind it is cell-based. The following applies: for prolongation of CT (clotting time) vs baseline: 10 minutes at 37° C. As for the experimental part:
Blood specimens were obtained in citrate tubes from 6 healthy human donors. Specimens were incubated with 15 and 30 μg/mL of Antibody 1 or vehicle for 10 minutes at 37° C. Specimens were subsequently spiked with rFVIIa at 0.5 and 1 μg/mL or vehicle control. Clot formation was monitored using ROTEM® delta analyzers and the non-activated thromboelastometry (NATEM) test using a recalcification reagent. CT (clotting time, in seconds), CFT (clot formation time, in seconds), alpha angle, etc. were measured and were compared to reference ranges provided by the manufacturer (Pentapharm GmbH, Munich, Germany).

B1: Antibody 1: high-affinity, anti-human Factor XI monoclonal antibody; heavy chain SEQ ID NO: 31, light chain SEQ ID NO: 41 (antibody)
heavy: QVQLLESGGGLVQPGGSLRLSCAASGFTFSTAAMSWVRQAPGKGLEWVSGISGSGSSTYYADSVKGRFTISRDNSKNTLYLQMNSLRAEDTAVYYCARELSYLYSGYYFDYWGQGTLVTVSSASTKGPSVFPLAPSSKSTSGGTAALGCLVKDYFPEPVTVSWNSGALTSGVHTFPAVLQSSGLYSLSSVVTVPSSSLGTQTYICNVNHKPSNTKVDKRV[skipping human IgG1 Fc with D265A P329A (EU numbers)]
light: QSVLTQPPSASGTPGQRVTISCSGSSSNIGSNDVSWYQQLPGTAPKLLIYKNYNRPSGVPDRFSGSKSGTSASLAISGLQSEDEADYYCSAWDQRQFDVVFGGGTKLTVLGQPKAAPSVTLFPPSSEELQANKATLVCLISDFYPGAVTVAWKADSSPVKAGVETTTPSKQSNNKYAASSYLSLTPEQWKSHRSYSCQVTHEGSTVEKTVAPTECS
For B1, the “platelet aggregation induced by TRAP-6” value with platelet aggregation [1] (TRAP-6 8 μM) is reported as “no inhibitory or stimulatory effects”. Also, in the assay on platelet aggregation [1] (collagen 1 μg/mL, abciximab 50 nM), the “platelet aggregation induced by collagen” value is “no inhibitory or stimulatory effects”. Further, in the assay with thrombin generation, the “lag time of thrombin generation” value is “significant delays” and the “time to peak concentration of thrombin generation” value is “significant delays”. Also, in the assay on platelet aggregation [2], the “effect on level of platelet aggregation inhibition achieved with aspirin alone” value was “did not attenuate or increase”. The “effect on platelet inhibition achieved with ticagrelor alone” value in the assay with platelet aggregation [3] is listed as “did not alter”. Further, in assay [4] (Antibody 1 15 μg/mL), the “decrease of alpha angle vs baseline” value came to 10%, the “prolongation of CFT (clot formation time) vs baseline” value is 37% and the “prolongation of CT (clotting time) vs baseline” value amounted to 61%. In assay [4] (Antibody 1 30 μg/mL), the “decrease of alpha angle vs baseline” value was determined as 14%, the “prolongation of CFT (clot formation time) vs baseline” value is 32% and the “prolongation of CT (clotting time) vs baseline” value worked out at 64%.
